# Assay results reported in PubChem BioAssay AID488969 (Vanderbilt High Throughput Screening Facility, 2010).
# In all, about 110,000 compounds were measured (“z-score”: median about -0.1, highest 2% from about 2 on). The list shows a part of the results. The source made the active and inactive calls.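 How the source made its calls: active means z-score in the third read window above 3 or below -3; inactive means the rest.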
# Molecular target: Metabotropic glutamate receptor 8 (Rattus norvegicus) (UniProt P70579)
# Chain of UniProt P70579 (P70579 whole entry, looked up): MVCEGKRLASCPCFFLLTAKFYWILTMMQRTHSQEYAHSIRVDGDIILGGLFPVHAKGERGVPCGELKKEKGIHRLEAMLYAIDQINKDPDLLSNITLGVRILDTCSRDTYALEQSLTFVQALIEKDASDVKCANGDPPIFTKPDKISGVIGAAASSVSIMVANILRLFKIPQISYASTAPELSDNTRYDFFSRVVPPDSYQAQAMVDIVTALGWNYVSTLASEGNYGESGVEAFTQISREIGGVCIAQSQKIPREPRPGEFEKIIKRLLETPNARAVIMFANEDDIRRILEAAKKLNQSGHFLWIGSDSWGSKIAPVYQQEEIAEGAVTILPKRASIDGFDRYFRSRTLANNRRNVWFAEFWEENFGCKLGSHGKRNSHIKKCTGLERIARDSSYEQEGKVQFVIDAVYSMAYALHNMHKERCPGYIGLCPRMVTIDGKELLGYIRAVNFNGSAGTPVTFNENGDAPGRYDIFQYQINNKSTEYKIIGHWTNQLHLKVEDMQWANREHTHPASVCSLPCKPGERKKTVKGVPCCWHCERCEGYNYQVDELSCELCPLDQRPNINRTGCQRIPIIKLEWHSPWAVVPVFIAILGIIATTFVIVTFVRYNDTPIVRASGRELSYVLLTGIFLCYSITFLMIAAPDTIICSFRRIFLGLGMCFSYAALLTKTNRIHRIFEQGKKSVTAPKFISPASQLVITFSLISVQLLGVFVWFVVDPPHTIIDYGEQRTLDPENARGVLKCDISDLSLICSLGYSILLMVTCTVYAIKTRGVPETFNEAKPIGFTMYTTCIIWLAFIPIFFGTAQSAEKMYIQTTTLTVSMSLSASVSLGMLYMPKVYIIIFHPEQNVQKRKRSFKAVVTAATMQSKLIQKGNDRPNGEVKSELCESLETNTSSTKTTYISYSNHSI
# Experiment: rat mGluR8 modulators via GIRK flux, primary screen, cell-based, thallium flux, HTS (AID 488969)
# Conditions: HEK293 rat mGluR8, GIRK (G protein-gated inwardly rectifying potassium channel) thallium flux, FluoZin2; at 10 µM; stronger effect = higher value; submaximal glutamate (EC20) added with thallium
row,Compound,z-score
1,Cc1ccc(C(=O)NCC(=O)NCC(=O)OCC(=O)c2ccc(Br)cc2)cc1,0.0108
2,CCc1ccccc1N1CC23C=CC(O2)C(C(=O)OCC(C)C)C3C1=O (stereo not given),-0.106
3,CCc1nnc(NC(=O)CSc2nnc(-c3cccnc3)n2CC)s1,-0.491
4,Cc1[nH]n2c(=O)c(C#N)c(-c3ccccc3)nc2c1-c1ccccc1,-0.136
5,CCc1nc2oc3cc(OC)ccc3c(=O)c2c(=O)n1-c1ccccc1,0.0834
6,NC(=O)c1sc2cc(C(F)(F)F)cnc2c1-c1cccs1,-0.135
7,CCOc1ccc(/C=N/n2c(SC)nnc(C(C)(C)C)c2=O)cc1,0.151
8,CCC(c1nnnn1CCc1ccccc1)N1CCN(c2ccc(OC)cc2)CC1 (stereo not given),-0.0951
9,O=C(NCCN1CCc2ccccc2C1)C1CCN(S(=O)(=O)N2CCCCC2)CC1,0.147
10,Cc1cc2oc(=O)cc(COC(=O)c3n[nH]c4ccccc34)c2cc1C,-0.06
11,CC(=O)c1cccc(NC(=O)/C(=C\c2ccco2)NC(=O)c2cccs2)c1,0.0614
12,CCOc1cc(/C=N/NC(=O)CN2CCOCC2)ccc1OCc1ccc(Cl)cc1,-0.0847
13,CCOc1ccc(N2CC(C(=O)NCCc3ccc(OC)c(OC)c3)CC2=O)cc1 (stereo not given),-1.78
14,COCCOC(=O)C(C#N)c1nc2ccccc2nc1N1CCCC1 (stereo not given),-0.268
15,COc1ccc(NC(=O)Cn2c(=O)n(CC(=O)NCc3ccco3)c(=O)c3ccccc32)cc1,0.213
16,Cc1c(C(=O)NC(C)CCc2ccccc2)cccc1[N+](=O)[O-] (stereo not given),-0.112
17,COCCNc1nnc(SCC(=O)c2ccc3c(c2)OCO3)s1,-0.106
18,C=C(C)COc1ccc(-c2n[nH]c(C)c2-c2ccc(OC)cc2)c(O)c1,0.0936
19,O=C(O)c1ccc2c(c1)N(Cc1cccc(F)c1)C(=O)CS2,-0.288
20,Cc1ccc(-c2nc(CS(=O)CC(=O)NCc3ccccn3)c(C)o2)cc1 (stereo not given),-0.248
21,Cc1cc2c(C)ccc(C)c2nc1SCC(=O)c1cccs1,-0.0764
22,O=C(Nc1ncccc1O)c1cccc(S(=O)(=O)N2CCc3ccccc32)c1,1.16
23,O=C(COc1ccc(Cl)cc1)N/N=C/CCc1ccccc1,-0.494
24,COCCn1c(N)c(C(=O)Nc2sc3c(c2C(=O)OC)CCCC3)c2nc3ccccc3nc21,0.711

row,Compound,z-score
1,Cn1ccnc1C(=O)c1cccc([N+](=O)[O-])c1,0.0533
2,O=C(N/N=C/c1cccs1)c1cc(C2CC2)nc2ccccc12,1.02
3,CC(C)N1CC(C(=O)Nc2ccc(Br)c(Cl)c2)CC1=O (stereo not given),0.0942
4,Cc1ccc2nc(-c3ccc(NC(=O)Cc4cccs4)cc3)[nH]c2c1,-0.431
5,CCOc1cc(C(=O)Nc2ccc(N3CCN(S(C)(=O)=O)CC3)cc2)cc(OCC)c1OCC,-0.182
6,c1ccc(-n2ncc3c2ncn2c(C4CCCCC4)nnc32)cc1,0.0535
7,Cc1c(NC(=O)CSc2ccccc2C(=O)Nc2cccnc2)c(=O)n(-c2ccccc2)n1C,2.06
8,Cc1cc(C)c2[nH]c(=O)c(CN(Cc3ccco3)C(=O)c3cccs3)cc2c1,1.44
9,N#Cc1ccsc1NC(=O)COC(=O)c1ccc2ccccc2c1,-0.182
10,CSc1ccccc1C(=O)Nc1ccc2c(c1)OCCO2,-0.715
11,COCCn1c(SCC(=O)c2ccccc2)nc2c(c1=O)SC(C)C2 (stereo not given),-1.84
12,COc1ccc(Cc2nnc(NC(=O)CSc3ccccc3)s2)cc1,-0.0797
13,CC(C)NCCOc1cccc(Br)c1,0.152
14,COc1ccc(NC2=CC(=O)CC(C)(C)C2)cc1OC,0.0586
15,Nn1c(SC/C=C/c2ccccc2)nnc1-c1ccco1,-0.117
16,CCOc1ccc(C(=O)Nc2cccc(-c3cc4ccccc4oc3=O)c2)cc1[N+](=O)[O-],0.048
17,Cc1ccc2cc(CN(C(=O)C3CCCO3)C3CCCCC3)c(=O)[nH]c2c1 (stereo not given),0.59
18,C=CCC(NCCCO)c1cccc(OC)c1OC (stereo not given),-0.0832
19,CCOP(=O)(c1ccc(N(C)C)cc1)C(O)c1c(Cl)cccc1Cl (stereo not given),0.373
20,CC(/C=C/c1ccco1)=N\NC(=O)c1cccc(Cl)c1,-1.27
21,CC(C)OC(=O)C1C(=O)CC(C)(O)C(C(=O)OC(C)C)C1c1ccc(F)cc1 (stereo not given),0.157
22,COCCCNC(=O)C1CC(=O)N(CCc2ccc(OC)c(OC)c2)C1 (stereo not given),-0.12
23,CCC(C)NC(=O)COC(=O)c1csc2c1CCCC2 (stereo not given),-0.0704
24,O=C(Nc1ccccc1C(=O)O)c1cccc(F)c1,-0.262

row,Compound,z-score
1,Cc1oc(C(=O)Nc2ccc(C(=O)O)cc2)cc1COc1ccccc1,-0.176
2,Cc1cc(=O)n2c3ccccc3n(CC(O)CN3CCC(C)CC3)c2c1C#N (stereo not given),-0.418
3,Cc1ccc(NS(=O)(=O)c2cccc(C(=O)O)c2)cc1S(=O)(=O)N1CCCCC1,-0.132
4,Cc1ccc(NC(=O)COc2ccccc2C(=O)Nc2ccccc2)cc1Cl,-0.245
5,O=C(O)c1ccc(CS(=O)(=O)c2cccc(C(F)(F)F)c2)o1,-0.171
6,C=CCn1c(Cc2ccc(OC)cc2)nnc1SCC(N)=O,-0.215
7,CN1CCc2nc(NC(=O)c3cccc(S(=O)(=O)N4CCc5ccccc54)c3)sc2C1,0.344
8,COc1cccc(NC(=O)CSc2nc(C)cs2)c1,0.237
9,S=C(Nc1ccc(Cl)cc1)N1CCCC1,0.113
10,O=C(NCc1ccco1)C1CCN(C(=O)Cc2ccccc2)CC1,-0.049
11,Cc1ccc(-c2nc3ccccc3[nH]2)cc1NC(=S)NC(=O)c1ccccc1Br,0.208
12,CCc1cccc2c(SC(C)C(=O)NCC3CCCO3)nc(-c3ccccc3)nc12 (stereo not given),-0.603
13,Cc1cc(NC(=O)C2CC(=O)N(c3ccccc3)C2)no1 (stereo not given),-0.238
14,Cc1ccc(Oc2c(F)c(F)nc(N3CCCC3)c2F)cc1,-0.0964
15,S=c1[nH]c2ccc(Cl)cc2[nH]1,0.488
16,Cc1cc(C)nc(Nc2n[nH]c(COc3cccc4ccccc34)n2)n1,-0.325
17,COC(=O)c1ccc2c(=O)n(NC(=O)C(c3ccccc3)c3ccccc3)c(=S)[nH]c2c1,-0.337
18,CCN(CC)CCNc1nc(-c2ccccc2)nnc1C(F)(F)F,0.135
19,COc1ccc(C)cc1NC(=O)C(=O)NNC(=O)c1ccco1,active: 4.89
20,CCOC(=O)/C(N)=C/c1ncc(C(F)(F)F)cc1Cl,0.0511
21,COc1ccc(N2C(=O)CC(N3CCN(c4ccc(C(=O)c5cccnc5)cc4)CC3)C2=O)cc1 (stereo not given),-0.186
22,CCOC(=O)C1CCN(C(=O)CNC(=O)OC(C)(C)C)CC1,-0.318
